Measurements: PubChem BioAssay AID1508624 (National Center for Advancing Translational Sciences (NCATS), 2021)
The campaign covered roughly 48,000 compounds. About 120 (0.25%) were called active. Inconclusive results (about 4%) are left out. Calls follow the shape of the dose curve; as a rule, active = well fitted activation curve with a large enough effect; inconclusive = small, poorly fitted or top-dose-only effect, or another doubt; inactive = no such curve, though single readings can be large or run the other way. Some of the results follow.

Assay: Primary qHTS for Identification of Small Molecule Activators of Huntingtin-Antisense Promoter Activity; also: nearly all actives have a fitted effect of over 55% in size
Conditions: HEK293 HTT-AS promoter firefly luciferase reporter, 24 h; series mostly up to 57.5 µM; activity change, positive = activation: at the top concentration
In short: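 HEK293 cells carrying firefly luciferase reporters were seeded at 2,500 per well in Opti-MEM and cultured for 24 h. They were then treated with compounds at up to 57.5 uM final for 24 h at 37 degrees C before Dual-Glo luminescence readout.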

For `CCc1ccc(-n2c(=O)c3cccnc3n2CC(=O)Nc2cc(F)ccc2F)cc1`, which “activity change, positive = activation” value is on record?
Its value is inactive: -18.4%.

Which “activity change, positive = activation” value does the source give for `CC(=O)Oc1cc2c(s1)CCN(C(C(=O)C1CC1)c1ccccc1F)C2` (stereo unspecified) here?
The value was inactive: -74.7%.

For `CCN(CC)C(=O)Cn1cc(SCC(=O)Nc2ccccc2C)c2ccccc21`, which “activity change, positive = activation” value is on record?
Its value is inactive: -14.5%.

For `CCN1CCN(c2ncc3c(n2)CCN(Cc2ccc(OC(C)C)cc2)C3)CC1`, which “activity change, positive = activation” value is on record?
Its value is inactive: -13.6%.

For `Cc1cccc(-c2nc(SCCCOc3ccc(Cl)c(C)c3)n3[nH]c(=O)cc3n2)c1`, which “activity change, positive = activation” value is on record?
Its value is inactive: -7.38%.

Which “activity change, positive = activation” value does the source give for `CCOC(=O)c1cccc(NC(=O)NCc2ccc3c(c2)CCN3C(=O)c2ccccc2)c1` here?
The value was inactive: -44.5%.

Which “activity change, positive = activation” value does the source give for `CC(O)CCCCn1c(=O)c2c(ncn2C)n(C)c1=O` (stereo unspecified) here?
The value was inactive: -2.05%.

With `CCOC(=O)c1ccc(-c2ccc(/C=C(\C#N)C(=O)Nc3ccc(OCC)cc3)o2)cc1` as the molecule, how does the “activity change, positive = activation” value read?
Its value is inactive: 10.9%.

With `Cc1ccc(C)n1-c1nnc(N2CCCC(C(=O)NCc3cccc(Cl)c3)C2)s1` (stereo unspecified) as the molecule, how does the “activity change, positive = activation” value read?
The value was inactive: -10.1%.

For `CCc1ccc(-n2c(Cc3ccccc3)nnc2SCc2nc(-c3cccs3)no2)cc1`, which “activity change, positive = activation” value is on record?
The value was inactive: -37.7%.

For `CC1=C(C(=O)NCc2ccc(Cl)cc2)C2(CCCCC2)OC1=O`, which “activity change, positive = activation” value is on record?
Its value is inactive: -8.61%.

For `Cc1ccc(/C=C/c2onc(C)c2S(=O)(=O)N2CCC(C(=O)NCC(C)c3ccccc3)CC2)cc1` (stereo unspecified), which “activity change, positive = activation” value is on record?
Its value is inactive: -11.1%.

With `CCn1cc(S(=O)(=O)c2cccc(Cl)c2)c(=O)c2cc(F)c(N3CCN(c4ccccc4)CC3)cc21` as the molecule, how does the “activity change, positive = activation” value read?
The value was inactive: -0.638%.

For `CC(C)C(=O)Nc1ccc([N+](=O)[O-])c(C(F)(F)F)c1`, which activity change, positive = activation is on record?
The activity change, positive = activation was “inactive”.

For `CCCCCn1c(-c2ccc(OC)c(OC)c2)nc2ccccc21`, which “activity change, positive = activation” value is on record?
Its value is inactive: -0.468%.

For `Cc1ccc(Cl)cc1N1CCN(S(=O)(=O)c2ccc3c(c2)CCCN3C(=O)C2CCC2)CC1`, which “activity change, positive = activation” value is on record?
Its value is inactive: -41.9%.

Which “activity change, positive = activation” value does the source give for `O=C(NCCc1ccccc1)c1cc(Sc2cccc(Cl)c2)nc2ccccc12` here?
Its value is inactive: -13%.

Which “activity change, positive = activation” value does the source give for `COc1cc(OC)c(NC(=O)Cn2c(=O)oc3cc(S(=O)(=O)N4CCCC4)ccc32)cc1Cl` here?
Its value is inactive: -37.6%.

With `Cc1ccc(CN2C(=O)c3oc4ccc(C)cc4c(=O)c3C2c2ccc(O)cc2)cc1` (stereo unspecified) as the molecule, how does the “activity change, positive = activation” value read?
Its value is inactive: -10.1%.

With `COc1ccc(NS(=O)(=O)c2ccc3[nH]c4c(c3c2)CCCC4)cc1Cl` as the molecule, how does the “activity change, positive = activation” value read?
Its value is inactive: -35.2%.

Which “activity change, positive = activation” value does the source give for `O=C(Cn1ncc2c([nH]c3ccccc32)c1=O)NCC1CCN(Cc2ccc(F)cc2)CC1` here?
The value was inactive: -12.6%.

Which “activity change, positive = activation” value does the source give for `Cc1ccccc1C(=O)Nc1nc(-c2nnn(-c3ccc(C(C)C)cc3)c2C)ns1` here?
The value was inactive: -32.1%.

For `CCOc1ccccc1CNC(=O)C1CCN(S(=O)(=O)c2ccc3c(ccn3C)c2)CC1`, which “activity change, positive = activation” value is on record?
The value was inactive: -13.1%.

With `Cc1cc(Cl)ccc1NC(=O)CN(c1ccccc1Br)S(C)(=O)=O` as the molecule, how does the “activity change, positive = activation” value read?
Its value is inactive: -5.75%.

Which “activity change, positive = activation” value does the source give for `CCOc1ccc(C(=O)NCCS(=O)(=O)N2CCN(c3ccccc3F)CC2)cc1OCC` here?
Its value is inactive: -16.1%.

With `COc1ccc(CN2CCN(c3ncnc4sc5c(c34)CC(C)CC5)CC2)cc1F` (stereo unspecified) as the molecule, how does the activity change, positive = activation read?
The activity change, positive = activation was inactive: 14.3% [at 11.5 µM, percent change from vehicle, -100% = no light].

With `COc1ccccc1N1CCN(CCCNC(=O)c2cnn(-c3ccccc3)c2C2CCN(C(=O)OC(C)(C)C)CC2)CC1` as the molecule, how does the “activity change, positive = activation” value read?
Its value is inactive: -20.8%.

Which “activity change, positive = activation” value does the source give for `Cc1ccccc1C(=O)OCc1cc(=O)n2nc(-c3cccs3)sc2n1` here?
The value was inactive: 0.811%.

For `CC(=O)O[C@]1(C(C)=O)CC[C@@H]2[C@@H]3C[C@H](C)C4=CC(=O)CC[C@]4(C)[C@H]3CC[C@@]21C`, which “activity change, positive = activation” value is on record?
Its value is inactive: -21%.

For `CC1=C(C(=O)Nc2ccccc2)C(c2cccs2)n2nc(SCc3ccccc3F)nc2N1` (stereo unspecified), which “activity change, positive = activation” value is on record?
Its value is inactive: -18.3%.

With `Cc1ccc(C)c(NC(=O)c2cc(S(=O)(=O)N3CCCCCC3)ccc2F)c1` as the molecule, how does the “activity change, positive = activation” value read?
Its value is inactive: -11.6%.

With `CN(C)CCN(Cc1ccco1)C(=O)c1oc2ccccc2c1NC(=O)c1ccccc1` as the molecule, how does the “activity change, positive = activation” value read?
The value was inactive: -18.9%.

With `Cc1ccc(OCC(=O)N(Cc2ccco2)Cc2ccc(C)o2)cc1` as the molecule, how does the “activity change, positive = activation” value read?
Its value is inactive: -24.3%.

Which “activity change, positive = activation” value does the source give for `COc1ccc(-c2cc(C(F)(F)F)n3nc(C(=O)Nc4ccccc4SC)cc3n2)cc1OC` here?
Its value is inactive: -11.5%.

With `CCC(C)NC(=O)c1nn(-c2ccc(C)cc2)c(=O)n(C)c1=O` (stereo unspecified) as the molecule, how does the “activity change, positive = activation” value read?
Its value is inactive: -6.5%.

Which “activity change, positive = activation” value does the source give for `COc1cc2c(=O)n(CCC(=O)NCC3CCCO3)c(=O)n(CC(=O)Nc3ccc(C)c(C)c3)c2cc1OC` (stereo unspecified) here?
Its value is inactive: -7.36%.

For `COc1cccc(CCNC(=O)c2c(O)nc3ccccn3c2=O)c1`, which “activity change, positive = activation” value is on record?
The value was inactive: 23%.

For `CC(C)c1cccc(OCCn2c(-c3ccc(Cl)cc3)nc3ccccc3c2=O)c1`, which “activity change, positive = activation” value is on record?
Its value is inactive: -12.2%.

With `CCOc1ccccc1NC(=O)c1cnn2c(C(F)F)cc(-c3ccccc3)nc12` as the molecule, how does the “activity change, positive = activation” value read?
The value was inactive: -42.7%.

Which “activity change, positive = activation” value does the source give for `COc1ccc(NC(=O)CSc2nc3ccccc3n2Cc2cccc(OC)c2)cc1` here?
The value was inactive: -23.9%.

With `CCOc1ccc(NC(=O)C2CCN(c3nnc(-n4c(C)ccc4C)s3)CC2)cc1` as the molecule, how does the “activity change, positive = activation” value read?
The value was inactive: -5.03%.

With `Cc1nc(-c2cccnc2)sc1CCNS(=O)(=O)c1ccc(F)cc1` as the molecule, how does the “activity change, positive = activation” value read?
The value was inactive: -13.3%.

For `COCCNC(=O)c1cccc(-n2c(C)nc3cccnc32)c1`, which “activity change, positive = activation” value is on record?
The value was inactive: -0.895%.

Which “activity change, positive = activation” value does the source give for `COc1ccc2c(CNCCc3ccco3)c(C(=O)O)n(Cc3ccccc3)c2c1` here?
Its value is inactive: -11.9%.

For `COc1ccc(-c2cc(C(F)(F)F)nc(SCC(=O)NCCc3ccccc3)n2)cc1OC`, which “activity change, positive = activation” value is on record?
Its value is inactive: -2.21%.

For `CCc1sc(Nc2cccc(C)c2C)nc1-c1cc2cccc(OC)c2oc1=O`, which “activity change, positive = activation” value is on record?
Its value is inactive: -9.65%.
